Measurements published in a collection of fitness landscapes (doi:10.1016/j.celrep.2020.107928).
Over roughly 81,000 sequences, “one-hybrid fitness for binding NBS DNA” has its median near -0.1; the highest 2% begin near 0.36. Some of the results follow.

B1: Caulobacter ParB omega fusion; a variant is named by its letters at X, in order, B8GW30 (parent)
chain: MESVVVGEPGMSEGRRGLGRGLSALLGEVDAAPAQAPGEQLGGSREAPIEILQRNPDQPRRTFREEDLEDLSNSIREKGVLQPILVRPSPDTAGEYQIVAGERAWRAAQRAGLKTVPIMVRELDDLAVLEIGIIENVQRADLNVLEEALSYKVLMEKFERTQENIAQTIGKSXSHVANXMRLLXLPDEVQSYLVSGELTAXHARAIAAAADPVALAKQIIEGGLSVRETEALARKAPNLSAGKSKGGRPPRVKDTDTQALESDLSSVLGLDVSIDHRGSTGTLTITYATLEQLDDLCNRLTRGI

Variants of: B1
Assay: one-hybrid fitness for binding NBS DNA (the Noc-binding site; scaled: cognate 1, non-cognate 0); higher = stronger binding
Details: with NBS DNA site
In short: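 Pre- and post-selection plasmids were Illumina-sequenced, three replicate libraries were pooled, and any variant with under 10 reads was removed. The libraries were Caulobacter ParB with four specificity codons randomised, selected in E. coli USO through a HIS3 reporter whose site is 19 bp from the promoter. Cells grew 48 hours at 37°C on M9 without histidine, with 0.1 mM IPTG and 5 mM 3-AT. Fitness is the log change in variant-to-wild-type read ratio, rescaled against cognate and non-cognate.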

Row | Variant | one-hybrid fitness for binding NBS DNA
1 | DHRS | ≤ 0.2
2 | NHSD | ≤ 0.2
3 | PTSH | ≤ 0.2
4 | TLEV | ≤ 0.2
5 | SSFC | ≤ 0.2
6 | QMLC | ≤ 0.2
7 | RPRG | ≤ 0.2
8 | GMSF | ≤ 0.2
9 | QKEV | ≤ 0.2
10 | KRVN | ≤ 0.2
11 | SFNY | ≤ 0.2
12 | PCRG | ≤ 0.2
13 | LADY | ≤ 0.2
14 | INRI | ≤ 0.2
15 | QNRD | ≤ 0.2
16 | QYWA | ≤ 0.2
17 | FEDR | ≤ 0.2
18 | TYQM | ≤ 0.2
19 | MWEI | ≤ 0.2
20 | RRYC | 0.313
21 | WTTC | ≤ 0.2
22 | RGRA | ≤ 0.2
23 | QWSS | ≤ 0.2
24 | QSCA | ≤ 0.2
25 | YVVR | ≤ 0.2
26 | ETNM | ≤ 0.2

Row | Variant | one-hybrid fitness for binding NBS DNA
27 | TWNF | ≤ 0.2
28 | AMTP | ≤ 0.2
29 | MSCC | ≤ 0.2
30 | SQQL | ≤ 0.2
31 | QINS | 0.329
32 | HDPV | ≤ 0.2
33 | ENTT | ≤ 0.2
34 | VHWS | ≤ 0.2
35 | ALKK | ≤ 0.2
36 | VYGR | ≤ 0.2
37 | KART | 0.209
38 | RANQ | ≤ 0.2
39 | QMRT | 0.79
40 | AVAI | ≤ 0.2
41 | SHPL | ≤ 0.2
42 | QKHL | ≤ 0.2
43 | PTAL | ≤ 0.2
44 | CNMC | ≤ 0.2
45 | RNAK | ≤ 0.2
46 | MSSD | ≤ 0.2
47 | AGLC | ≤ 0.2
48 | CFTT | ≤ 0.2
49 | VSWG | ≤ 0.2
50 | RKWA | 0.249
51 | GTVG | ≤ 0.2
52 | QADY | ≤ 0.2

Row | Variant | one-hybrid fitness for binding NBS DNA
53 | VKAQ | ≤ 0.2
54 | QSMK | ≤ 0.2
55 | KTRS | 0.262
56 | TTRI | ≤ 0.2
57 | RDDD | ≤ 0.2
58 | TSPK | ≤ 0.2
59 | CTMS | ≤ 0.2
60 | QTWW | ≤ 0.2
61 | LASA | ≤ 0.2
62 | TCVC | ≤ 0.2
63 | QMTF | ≤ 0.2
64 | ASLI | ≤ 0.2
65 | FKPG | ≤ 0.2
66 | LSMA | ≤ 0.2
67 | QQIY | ≤ 0.2
68 | SDFR | ≤ 0.2
69 | RTEG | ≤ 0.2
70 | RDDL | ≤ 0.2
71 | VSKN | ≤ 0.2
72 | SPKR | ≤ 0.2
73 | NTHT | ≤ 0.2
74 | KKMT | ≤ 0.2
75 | TNTI | ≤ 0.2
76 | PKIT | ≤ 0.2
77 | PPCR | ≤ 0.2
